Drawing on the RNAGym collection of RNA variant scans (doi:10.7554/elife.90254), this text covers self-cleavage for 167 variants.

B1: OR4K15 (parent)
chain: GUUAACGGUCAUAGGCCAUGGAAACUAGGAGCACCAUUUCGCUGCCAGUGAAGAAAUGAACAAAGAAAAUCUGGGCCAGGCAGGCAUCAAAAGAAAUAGUCUUGCGCUCAACCAGAAAGUCUGUAAUCAUUUUAAGGGUA

The source gives no read counts; variants with many changes may rest on few reads.

The variants in the series derive from B1. Kind of series: self-cleavage, relative activity (ratio to wild type); higher = more cleavage; in vitro, sequencing; the parent is a self-cleaving ribozyme.
In the case of U57C A63G A126C, the self-cleavage turned out to be 1.14.

On to A59G C77U U100C, for which the self-cleavage amounted to 2.21. In the case of A59G A116G A140G it was 0.69; in that of U57C A86G A126G, 0.8. In the case of U57C A90U G106A A129G it was 0.02; in that of A59U A62U A63U A68U U131C, 0.21; in that of A59G A62G A126G U127C U132C, 0.75. The result for U57C U70C U103C A110G reads 0.01. Regarding A59G U108C U122A, the self-cleavage is 0.01. The result for A59G U100A A111G C121U reads 0.01; that for U57A C105U A125G, 0.02. The result for A59G U70C U108C U120C reads 0; that for A59U A90G A114C U127C, 0.03.

For the variant A59U A64G A68G U131C, the self-cleavage was found to be 1.36. In the case of A59G A86G A135U, the self-cleavage was 1.81. With U57C C107U A140G, the self-cleavage is 0.01. The result for A59G A67G A94G A111C reads 0.01.

A59G A114G U122C A134G: the self-cleavage came to 0.18. The result for U57C A67G U108A U122C reads 0; that for A59G A82G A111G A129G, 0; that for A59G A82U U87C A114U, 0.02. On to U57C A67G A78G, for which the self-cleavage was 0.42. In the case of A59G A63U U72C A86G it was 0.19. U57C A86G A116G A126G: the self-cleavage turned out to be 0.5. On to A59G A94G A118G, for which the self-cleavage stood at 1.09. The result for U57C A96G A114G reads 0.29; that for A59G A82U G106U C107U, 0.

As for A59G A68G A89G, the self-cleavage was determined as 1.08. The result for A59G A67G A94U U131C reads 1.69; that for A59G U103C U108A A117G, 0.01; that for U57C A59G A68G U102A, 0.9.

Regarding U57C C71A A96G, the self-cleavage worked out at 0.15.

Regarding A59G A62U A90U A110U, the self-cleavage was found to be 1.01. For the variant A59G U72C A82G U122C U127A, the self-cleavage amounted to 0.18.

With G58U A95G C101U U120C, the self-cleavage was 0.26. In the case of A59U C76A U100C A117G U122C it was 0.03; in that of A59G A82G U97C, 0.05. In the case of A59G A92G U100C, the self-cleavage came to 2.71.

As to A59U A96G U103C, the self-cleavage is 1.07. In the case of U57C A66G A92G it was 1.35; in that of A59G A60G A64U A91G A92G, 0.57. The result for A59G A69G G75A A140C reads 0.13; that for A59G A66C U120C, 0.7; that for A59G U97A A118G, 0.93. In the case of A59G A86G U108G it was 0.05; in that of U57C A94G G106A, 0.04; in that of U57C A92G A94G U102C A126G, 1.45.

As to U57A A82G C105U U132C, the self-cleavage was 0.04. In the case of U57C A67G A82G it was 0.38; in that of A59G A64G A66G A78G A86U U108A A135G, 0.02; in that of U57A U70C A129U, 0.41. The result for A59G A66G U131C reads 1.44; that for A59G U103C U120C U132C, 0.24. The result for A59U A67G U97C reads 1.28; that for U57C U72C A116G, 0.11; that for U57C U102C A129G, 2.21. On to A59G A67G U97C U100C A140G, for which the self-cleavage was 1.86. On to A59G A96G A110G U127A, for which the self-cleavage was 0.17. On to A59G A64U A78G, for which the self-cleavage came out at 0.64. For the variant U57C A59C A94U, the self-cleavage was determined as 1.13. The result for A59U A64G A90G A92G reads 0.65; that for A59G G65A C121A, 2.42; that for A59G A62G A68G A116G, 0.29. Turning to U57C U127G U131C, the self-cleavage worked out at 1.

Consider A59G A66G C71A A78G A96C, for which the self-cleavage was found to be 0.13. The result for A59G U120C U122G A126G reads 2; that for U57C A114G U130A, 0.1; that for U57C U102C A129G U130C A135G, 1.56.

Turning to A59G U108G U131C, the self-cleavage stood at 0.02. In the case of U57C A59G A117G it was 1.2; in that of A59G A64U A117G, 1.79; in that of U57A A96G G137C, 1.71.

As to A59G A78G A82U A111G, the self-cleavage was 0.01. Turning to U57C A60U A89U U102A U139C, the self-cleavage was 0.75. In the case of A59G U70C A82U A90G A111G it was 0.01; in that of U57G A117G A134C, 0.9; in that of U57C A64U U72A A110G U122C, 0.01.

On to A59G A64G A66G U97C, for which the self-cleavage is 0.4. The result for A59G U72A A92U U102C A129G reads 0.26; that for A59G A95G A125G, 0.82; that for A59U A69U U103C C112A U127C, 0. In the case of A59G A67U A111U it was 0.28; in that of U57C A62G A64U, 0.62.

As to U57A A118G U122C U124C, the self-cleavage amounted to 0.57. Consider U57A A78G A98G, for which the self-cleavage was found to be 0.09.

As for U57A U100C U102A, the self-cleavage worked out at 1.87. The result for A59U A64G U102C A111G reads 0.06; that for A59G A62G G73A A91G A118G, 0.03; that for U57C A59G A66G U72A A118G, 0.09. The result for A59G A118G A126G reads 0.35. The result for U57C G80U U108C reads 0.02; that for U57A G75C A82U U120C, 0.11. Turning to A59G U70C G75A A86G, the self-cleavage stood at 0.11. The result for U57C A86G A118G reads 0.83; that for A59U A96G A111G, 0.02.

For U57C A110U U122C, the self-cleavage turned out to be 0.64. In the case of U57G A92G A118U U122C it was 0.72.

In the case of A59G A64G A78C U87C, the self-cleavage worked out at 0.18. In the case of A59G A60U U100C C113U U122C, the self-cleavage came out at 0.03.

In the case of A59G A66G A116G A129G U130C, the self-cleavage was 0.2. The result for A59U A78U A90G reads 0.25.

Consider A59U A66G U87A, for which the self-cleavage was found to be 1.2.

In the case of A59G A95U U108C A140G, the self-cleavage was 0.01. In the case of A59G A67G U124C A126G it was 0.35; in that of U57C G93A C109A, 0.15; in that of A59U A60G A68G, 1.82. The result for A59G A69G A78G G83A reads 0.34; that for U57C A89U A140G, 1.86; that for U57C A96G U131C, 0.98. In the case of U57G U103C A118U it was 0.15; in that of A59G A60U A62G U72A, 0.38; in that of A59G A78G U139C, 0.36. G58U A91G A95G: the self-cleavage is 1.14.

Regarding A59G U103A C109U, the self-cleavage was determined as 0.02. The result for A59G A69G A96G A129U reads 0.67. The result for A59G A66G C76U reads 0.06.

On to A59G G104A A116G, for which the self-cleavage is 0. Turning to A59G A86G A125U, the self-cleavage turned out to be 0.62. In the case of U57A G75C A96G A98G U102C A116G U131C A140G, the self-cleavage stood at 0.02. The result for U57A A89G U130C reads 1.06; that for G58U A66G A95G U102A A117U, 0; that for U57C U108C A126G, 0.01.

Consider A59G C101U U102C U130C, for which the self-cleavage was 1.06. The result for U57A C71A U87C U97A U102C U130C G136U reads 0.09; that for U57C A68G U132C A134G, 1.21. Take A59G A78U A91C U103C A111G: the self-cleavage was 0.02. The result for A59G A78U A135G reads 0.46. The result for A59G C88U U108C reads 0; that for A59G A66G A110U A114U, 0.01; that for A59G G73A U108C, 0.01. The result for U57C A63G A90G C113A reads 0.01. As for U57C A62G U87C, the self-cleavage came out at 0.2. The result for A59G G83U G138U reads 0.61; that for U57C A66G A68U U108C A117G, 0.01; that for A59G G104C U131C, 0.02. In the case of U57C A68C A86U it was 1.91; in that of A59G A62U U72A U102A, 0.08; in that of U57C A67U A78U A95G, 0.43. In the case of U57C U70A A94G U108C A117G it was 0; in that of A59G A126G A140U, 1.3.

As for A59G A118U A126G U127C, the self-cleavage was found to be 0.36. The result for A59G A126G U132C reads 0.92; that for A59G A60G A67G, 1.01. Take U57C U87C A114U: the self-cleavage amounted to 0.04. The result for U57C A89G G93U A110U U132C A140U reads 0.35; that for U57G U87C U124C, 0.63. For the variant G58A C77U A82G A116G, the self-cleavage came to 0.57.

Consider A59G G79A A114G A140G, for which the self-cleavage worked out at 0.04.

Consider U57C A66G U124A, for which the self-cleavage turned out to be 0.77. Consider U57G A82C U122A, for which the self-cleavage stood at 0.04. In the case of U57C A60G U108C, the self-cleavage was 0.01. The result for G58U A63G A118U reads 0.37; that for U57G A78U U100C A110U, 0.23; that for U57C A95G A114G, 0.41.

Turning to A59G A98G A110G A111G, the self-cleavage was 0.02.

Regarding A59G C77U U108C, the self-cleavage was determined as 0. The result for A59G A116U U139C reads 0.11; that for A59G A66U A116U U122C, 0.04; that for U57A A92G A117G, 0.16. The result for U57C U108C A110G reads 0; that for A59G A78U U108C, 0.02.

As to A59G A60G A82G, the self-cleavage was 0.66. In the case of U57C A111G U127C it was 0.

Consider U57A A90G U122C, for which the self-cleavage came out at 0.51.

In the case of U57C U87C A117U A125G, the self-cleavage came out at 0.16.

For A59G A92U A129U, the self-cleavage stood at 1.97. In the case of U57G U108C C113A A116G it was 0.
